Experimental data: the RNAGym collection of RNA variant scans (doi:10.7554/elife.90254)
Read counts are not given, so values of variants with three or more changes are uncertain.

B1: LINE1-full (parent)
chain: UACGUAGGUGGUUUUCCCCUGAUAGUGCUAAGGGGGCCUGGAAGUUUGGACUGGGCAGAGCUCAACACAGCGUGGCAAAGUGGCUGUGGCUAGACUGCCUCUCUGGAUUCCUCGUCACUCAGCAGGGCAUCUCUGAGAGAAAUGCC

Variants of: B1
Assay: self-cleavage, relative activity (ratio to wild type); higher = more cleavage; in vitro, sequencing; the parent is a self-cleaving ribozyme

Variant	self-cleavage
UACGUAGGUGGUUUUCCCCUGAUAGUGCUAAGGGGGCCUGGGAGUUUGGACUGGGCAGAGCUCAUCUCAGCAUGGCAACGUGGCUGUGGCUAGACUGCCUCUCUGGAUUCCUCGUCACUCAGCAGGGCAUCUCUGAGAGAAACGCC [A42G A65U A67U G72A A79C U143C]	0.11
UACGUAGGUGGUUUUCCCCUGAUAGUGCUAAGGGGGCCUGGCAGUUUGGACUGGGCGGAGCUCAACACAGCGUGGCAAAGUGGCUGUGGCUAGACUGCCUCUCUGGAUUCCUCGUCACUCAGCAGGGUAUCUCAGAGAGAAAUGCC [A42C A57G C128U U134A]	0.2
UACGUAGGUGGUUUUCCCCUGAUAGUGCUAAGGGGGCCUGGGAGUUUGGACUGGGCAGAGCUCAACACGGCGUGGCAAAGUGGCUGUGGCUAGACUGCCUCUCUGGAUUCCUCGUCACUCAGCAGGGCGUCUCUGAGAGAAAUGCC [A42G A69G A129G]	2.63
UACGUAGGUGGUUUUCCCCUGAUAGUGCUAAGGGGGCCUGGGAGUUUGGACUGGGCAGAGCUCAACCCAGCGUGGCAAAGUGGCUGUGGCUAGACUGCCUCCCUGGAUUCCUCAUCACUCAGCAGGGCAUCUCUGAGAGAAAUGCC [A42G A67C U102C G114A]	0
UACGUAGGUGGUUUUCCCCUGAUAGUGCUAAGGGGGCCUGGGAGUUUGGACUGGGCUGAGCUCAACACAGUGUGGCAAAGUGGCUGUGGCUAGACUGCCACUCUGGAUUCCUCGUCACUCAGCAGGGCAUCUCUGAGAGAAAUGCC [A42G A57U C71U U100A]	0
UACGUAGGUGGUUUUCCCCUGAUAGUGCUAAGGGGGCCUGGGAGUUUGGACUGGGCAGAGCUCAACUCAGCGUGGCAAAGUGGCUGUGGCUAGGCUGCCUCUCUGGAUUCCUCGUCACUCAGCAGGGCAACUCUGAGAGAAAUGCC [A42G A67U A94G U130A]	0.09
UACGUAGGUGGUUUUCCCCUGAUAGUGCUAAGGGGGCCUGGGUGCUUGGACUGGGCAGAGCUCAACACAGCGUGGCGAAGUGGCUGUGGCUAGACUGCCUCUCUGGAUUCCUCGUCACUCAGCAGGGCAUCUCUGAGAGAAAUGCC [A42G A43U U45C A77G]	2.51
UACGUAGGUGGUUUUCCCCUGAUAGUGCUAAGGGGGCCUGGGAGUUUGGACUGGGCGGAGCUCAACACUGCGUGGCAAAGUGGCUGUGGCUAGACUGCCUCUCUGGAUUCCUCGUCACUCAGCAGGGCAUCUCUGAGAGAAAUGCC [A42G A57G A69U]	0.07
UACGUAGGUGGUUUUCCCCUGAUAGUGCUAAGGGGGCCUGGGAGUUUGGACUGGGCAGGGCUCAACACAGCGAGGCAAAGUGGCUGUGGCUAGACUGCCUCUCUGGAUUCCUCGUCACUCAGCAGGGCAUCUCUGAGAGAAAUGCC [A42G A59G U73A]	0.17
UACGUAGGUGGUUUUCCCCUGAUAGUGCUAAGGGGGCCUGUAAGUUUGGACUGGGCAGAGCUCAACACAGCGUGGCAAAGUGGCUGUGGCUAGACUGCCUCUCUGGAUUCCUCGUCACCCAGCAGGGCAUCUCCGAGAGAAAUGCC [G41U U119C U134C]	1.72
UACGUAGGUGGUUUUCCCCUGAUAGUGCUAAGGGGGCCUGGGAGUUUGGACUGGGCAGAGCUCAACUCAGCGUGGCAAAGUUGCUGUGGCUAGACUGCCUCUCUGGAUUCCUCGUCACUCAGCAGGGCAUCUCUGAGAGAAAAGCC [A42G A67U G82U U143A]	0.12
UACGUAGGUGGUUUUCCCCUGAUAGUGCUAAGGGGGCCUGGGAGUUUGGGCUGGGCAGAGCUCAACACAGCGCGGCAAAGUGGCUGUGGCUAGACUGCCUCUUUGGAUUCCUCGUCACUCAGCAGGGCAUCUCUGAGAGAAAUGCC [A42G A50G U73C C103U]	1.31
UACGUAGGUGGUUUUCCCCUGAUAGUGCUAAGGGGGCCUGGCGGUUUGGACUGGGCAGAGCUCAACACAGCGUGGCAAAGUGGCUGUGGCUAGACUGCCUCUCUGGAUCCCUCGUCACUCAGCAGGGCAUCUCUGAGAGAAAUGCC [A42C A43G U109C]	0
UACGUAGGUGGUUUUCCCCUGAUAGUGCUAAGGGGGCCUGGGAGUUUGGACUGGGCGAAGCUCAGCAUAGCGUGGCAAAGUGGCUGUGGCUAGACUGCCUCUCUGGAUUCCUCGUCACUCAGCAGGGCAUCUCUGAGAGAAAUGCC [A42G A57G G58A A65G C68U]	0.14
UACGUAGGUGGUUUUCCCCUGAUAGUGCUAAGGGGGCCUGUAAGUUUGGACUGGGCAAAGCUCAACACAGCGUGGCAAAGUGGCUGUGGCUAGACUGCCUCUCUGGAUUCCCCGUCACUCAGCAGGGCAUCUCUGAGAGGAAUGCC [G41U G58A U112C A140G]	0.02
UACGUAGGUGGUUUUCCCCUGAUAGUGCUAAGGGGGCCUGGCAGUUUGGACUGGGCAGAGCUCAACACAGCGCGGCGGAGUGGCUGUGGCUAGACUGCCUCUCAGGAUUCCUCGUCAUUCAGCAGGGCAUCUCUGAGAGAAAUGCC [A42C U73C A77G A78G U104A C118U]	0.92
UACGUAGGUGGUUUUCCCCUGAUAGUGCUAAGGGGGCCUGGGAGUUUGGACUGGGCAGAGCUCAGCACGGCGUGGCAAAGAGGCUGUGGCUAGACUGCCUCUCUGGAUUCCUCGUUACUUAGCAGGGCAUCUCUGAGAGAAAUGCC [A42G A65G A69G U81A C116U C120U]	0.1
UACGUAGGUGGUUUUCCCCUGAUAGUGCUAAGGGGGCCUGGGAGUUUGGACUGGGCUGAGCUCAACACAGCGUGGCAAAGAGGCUGUGGCUAGACUGCCUCUCUGGAUUCCUCGUCGCACAGCAGGGCAUCUCUGAGAGAAACGCC [A42G A57U U81A A117G U119A U143C]	0.31
UACGUAGGUGGUUUUCCCCUGAUAGUGCUAAGGGGGCCUGGGAGUUUGGACUGGGCAGAGCUCAGCACAGCGUGGCAAAGUGGCUGUGGCUAGACCGCCUCUCUGGAUUCCUUGUCACCCAGCAGGGCAUCUCUGGGAGAAAUGCC [A42G A65G U96C C113U U119C A136G]	0
UACGUAGGUGGUUUUCCCCUGAUAGUGCUAAGGGGGCCUGGCAGUUUGGACUGGGCAGAGCUCAACACAGCGUGGCAAAGUGGCUGCGGCUAGACUGCCUCUCUGGAUUCCUCGUCACUCAGCAGGGCUUCUCUGAGAGAAAUGCC [A42C U87C A129U]	0

Variant	self-cleavage
UACGUAGGUGGUUUUCCCCUGAUAGUGCUAAGGGGGCCUGUAAGUUAGGACUGGGCAGAGCUCAACACAGCGUGGCAAAGUGGUUGUGGCUAGACUGCCUCUCUGGAUUCCUCGUCACUCAGCAGGGCAUCUCUGAGAGAAAUGCC [G41U U47A C84U]	0.1
UACGUAGGUGGUUUUCCCCUGAUAGUGCUAAGGGGGCCUGGGAGUUUGGACUGGGCAGAGCUCAGCACAGCGUGGCAAAGUGGCAGUGGCUAGACUGCCUCUCUGGAUUCCUCGUCACUCAGCAGGGCAUCUCUGAGAGAAAUGCC [A42G A65G U85A]	0
UACGUAGGUGGUUUUCCCCUGAUAGUGCUAAGGGGGCCUGGGAGUUUGGACUGGGCAGAGCUCAGCACAGCGUGGCAAAGUGGCUGUGGCUAGACUGCCUCUCUGGAUUCCUCGUCACACAGCAGGGCAUCUCUGAGAGAAAUGCC [A42G A65G U119A]	0.06
UACGUAGGUGGUUUUCCCCUGAUAGUGCUAAGGGGGCCUGGGUGUUUGGACCGGGCAGUGCUCAACACAGCGUGGCAAAGUGGCUGUGGCUAGACUGCCUCUCUGGAUUCCUCGCCACUCAGCAGGGCAUCUCUGAGAGAAAUGCC [A42G A43U U52C A59U U115C]	0.57
UACGUAGGUGGUUUUCCCCUGAUAGUGCUAAGGGGGCCUGGGAGUUUGGACUGGGCAGAGCUCGACACAGCGUGGCAAAGUGGCUGAGGCUAGACUGCCUCUCUGGAUUCCUCGUCACUCAGCAGGGCAUCUCUGAGAGAAAUGCC [A42G A64G U87A]	0.11
UACGUAGGUGGUUUUCCCCUGAUAGUGCUAAGGGGGCCUGGGAGUUUGGGCUGGGCAGAGCUCAACACAGCGUGGCAAAGUGGCUGUGGCUAGACUGCCUCUCUGGAUUCCUCGUCACCCAGCAGGGCAUCUCUGAGAGAAAUGCC [A42G A50G U119C]	1.53
UACGUAGGUGGUUUUCCCCUGAUAGUGCUAAGGGGGCCUGGGAGUUUGGACUGGGCAGAGCUCAGCACAGCGUGGCAAAGUGGCUGUGGCUAGACUACCUCUCUGGAUUCCUCGUCACUCAGCAGGGCAUCUCUGAGAGAAAUGCC [A42G A65G G97A]	0.24
UACGUAGGUGGUUUUCCCCUGAUAGUGCUAAGGGGGCCUGGGAGUUUGGACUGGGCAGAGCUCAACGCAGCGUGGCAAAGUGGCUGUGGCUAGACUGCCUCUCUGGAUUCCUCGCCACUCAGCAGGGCAUCUCUGAGAGAAAUGCC [A42G A67G U115C]	1.53
UACGUAGGUGGUUUUCCCCUGAUAGUGCUAAGGGGGCCUGGGAGUUUGGACUGGGCAGAGCUCAGCACAGCGUGGCAAAGUGGCUAUGGCUAGACUGCCUCUCUGGAUUCCUCGUCACUCAGCAGGGCAUCUCUGAGAGAAAUGCC [A42G A65G G86A]	0.03
UACGUAGGUGGUUUUCCCCUGAUAGUGCUAAGGGGGCCUGGGAGUUUGGACUGGGCAGAGCUCUACACAGCGUGGCAAAGUGGCUGUGGCUAGACUGCCUCUCUGGAUUCCUCGUCACUCAGCAGGGCUUCUCUGAGAGAUAUGCC [A42G A64U A129U A141U]	0.54
UACGUAGGUGGUUUUCCCCUGAUAGUGCUAAGGGGGCCUGGGGGUUUGGACUGGGCAGAGCCCAACACAGCGUGGCAAAGUGGCUGUGGCUAGACUGCCUCUCUGGAUUCCUCGUCACUCAGCAGGGCAUCUCUGUGAGAAAUGCC [A42G A43G U62C A136U]	0
UACGUAGGUGGUUUUCCCCUGAUAGUGCUAAGGGGGCCUGGGAGUUUGGACUGGGCAGAGCUCAACGCAGCGUUGCAAAGUGGCUGUGGCUAGACUGCCUCUCUGGAUUCCUCGUCACUCAGCAGGGCAUCUCUGAGAGAAAUGCC [A42G A67G G74U]	0.38
UACGUAGGUGGUUUUCCCCUGAUAGUGCUAAGGGGGCCUGGGGGUUUGGACUGGGCAGAGCUCAACACAGCGUGGCAAAGUGGCUGUGGCUAGACUGCCUCUCUGGAUUCCUCGUCACUCAGCUGGGCAUCUCUGAGAGAAGUGCC [A42G A43G A124U A142G]	0.43
UACGUAGGUGGUUUUCCCCUGAUAGUGCUAAGGGGGCCUGUAAGUUUAGACUGGGCAGAGCUCAACACAGCGUGGCAAAGUGGCUGUGGCUUGACUGCCUCUCUGGAUUCCUCGUCGCUCAGCAGGGCAUCUCUGGGAGAAAUGCC [G41U G48A A92U A117G A136G]	0.38
UACGUAGGUGGUUUUCCCCUGAUAGUGCUAAGGGGGCCUGUAAGUUUGGACUGGGCAGAGCUCAACACAGCGUGGCAAAGUGGCUGUGGCUAGACUGCCUCUCUGGACUCCCCGUCACUCAGCAGGGCAUCUCUGAGAGAAAUGCC [G41U U108C U112C]	1.17
UACGUAGGUGGUUUUCCCCUGAUAGUGCUAAGGGGGCCUGUAAGUUUGGACCGGGCAGAGCUCAACACAGCGUGGCAAAGUGGCUGUGGCUAGACUGCCUCUCUAGAUUCCUCGUCACUCAGCAGGGCAUCUCUGAGAGAAAUGCC [G41U U52C G105A]	0.61
UACGUAGGUGGUUUUCCCCUGAUAGUGCUAAGGGGGCCUGGGAGUUUGGACUGGGCAGAGCUCAACGCAGCGUGACAAAGUGGCUGUGGCUAGACUGCCUCUCUGGAUUCCUCGUCACUCAGCAGGGCAUCUCUGAGAGAAAUGCC [A42G A67G G75A]	0
UACGUAGGUGGUUUUCCCCUGAUAGUGCUAAGGGGGCCUGGGAGUUUGGUCUGGGCAGAGCUCAACACAGCGUGGCAAAGUGGCUGUGGCUAGACUGCCUCUCUGGAUUCCUCGUCACUCAGCAGGGCACCUCUGAGAGAAAUGCC [A42G A50U U130C]	0.56
UACGUAGGUGGUUUUCCCCUGAUAGUGCUAAGGGGGCCUGGGAGUUUGGACUGGGCAGAGCUCAUCACAGCGUGGCAAAGUGGCAGUGGCUAGACCGCCUCUCUGGAUUCCACGUCACUCUGCAGGGCAUCUCUGAGAGAGAUGCC [A42G A65U U85A U96C U112A A121U A141G]	0.04
